From ChEMBL document CHEMBL2150933 (J Med Chem, 2012)

Test system: NCI-H322M
Details: Homo sapiens, 48 h

Q: `CO[C@H](C(=O)[C@@H](O)[C@@H](C)O)[C@@H]1Cc2cc3cc(O[C@H]4C[C@@H](O[C@H]5C[C@@H](O)[C@H](O)[C@@H](C)O5)[C@H](O)[C@@H](C)O4)c(C)c(O)c3c(O)c2C(=O)[C@H]1O[C@H]1C[C@@H](O[C@H]2C[C@@H](O[C@H]3C[C@H](O)[C@H](O)[C@@H](C)O3)[C@H](O)[C@@H](C)O2)[C@H](O)[C@@H](C)O1` was tested. Which GI50 did it give?
A: 57.5 nM

Q: `CO[C@@H]([C@@H]1Cc2cc3cc(O[C@H]4C[C@@H](O[C@H]5C[C@@H](O)[C@H](O)[C@@H](C)O5)[C@H](O)[C@@H](C)O4)c(C)c(O)c3c(O)c2C(=O)[C@H]1O[C@H]1C[C@@H](O[C@H]2C[C@@H](O[C@H]3C[C@H](O)[C@H](O)[C@@H](C)O3)[C@H](O)[C@@H](C)O2)[C@H](O)[C@@H](C)O1)[C@@H](O)C(C)=O` was tested. Which GI50 did it give?
A: 23.4 nM

Q: Which GI50 does the source give for `CO[C@H](C(=O)C(C)=O)[C@@H]1Cc2cc3cc(O[C@H]4C[C@@H](O[C@H]5C[C@@H](O)[C@H](O)[C@@H](C)O5)[C@H](O)[C@@H](C)O4)c(C)c(O)c3c(O)c2C(=O)[C@H]1O[C@H]1C[C@@H](O[C@H]2C[C@@H](O[C@H]3C[C@H](O)[C@H](O)[C@@H](C)O3)[C@H](O)[C@@H](C)O2)[C@H](O)[C@@H](C)O1` here?
A: 15.8 nM
